Measured values published in PubChem BioAssay AID463173 (ICCB-Longwood Screening Facility, Harvard Medical School, 2010).
Out of some 52,000 compounds screened, about 4,300 (8.3%) were called active. No stated cut-off is given here; in the data, active means survival mostly below about 52% (no sharp cut-off); inactive means mostly above about 56%. The list shows a part of the results.

These compounds were tested on DeltatarO mutant (assay: growth inhibition of S. aureus wild type versus tarO mutant, primary screen, teichoic acid synthesis inhibitors, RN4220, OD600 (AID 463173)). Conditions: OD600, 18 h, hits give low values, screened at 18.75 µg/mL (by protocol).
With `CCOc1ccc(C2C(C(=O)Nc3ccc(C)cc3C)=C(C)Nc3c(C(=O)Nc4ccc(C)cc4)cnn32)cc1OC` (configuration not stated) the survival was inactive: 94%.
`CCC12CN3CC(C)(CN(C1)C3c1c(C)[nH]c3ccccc13)C2=O` (configuration not stated) was tested, and the survival was inactive: 83%.
`COc1ccc(-c2nc3c(C#N)c[nH]n3c2NC2CCCCC2)cc1` was tested, and the survival was inactive: 49%.
`COc1ccc(C2NC(=O)N(C)C3=C2C(=O)N(c2ccccc2)C3)cc1` (configuration not stated) was tested, and the survival was inactive: 78%.
For `O=C(O)CCn1c(=S)n(CCC(=O)O)c2ccccc21`, the survival was inactive: 107%.
`Cc1ccc(-n2nc(C)c3c(C)c(CCC(=O)NCc4cccc(Cl)c4)c(C)nc32)cc1C` was tested, and the survival was inactive: 98%.
`CC(=O)c1cccc(NC(=O)c2ccc3c(c2)CCN3S(=O)(=O)c2ccccc2)c1` was tested, and the survival was active: 44%.
`CCn1cc(S(=O)(=O)c2ccccc2)c(=O)c2cc(F)c(N3CCCCCC3)cc21` was tested, and the survival was inactive: 80%.
With `Cc1cccc(C(=O)Nc2cc3c(cc2N2CCCCC2)n(C)c(=O)n3C)c1` the survival was inactive: 71%.
For `CCOc1ccc(CCNC(=O)c2cc3cc4ccc(OC)cc4nc3s2)cc1OCC`, the survival was inactive: 83%.
For `O=C(CSc1c2c(nc3ccc(Cl)cc13)CCCC2)N1CCCCC1`, the survival was active: 22%.
With `Cc1ccccc1OCC(=O)Nc1ccc(S(=O)(=O)Nc2ncccn2)cc1` the survival was inactive: 133%.
In the case of `Cc1ccc(NC(=O)n2ncc3c(C)cccc32)c(C)c1`, the survival is reported as inactive: 85%.
`CCc1nn(CC(=O)N2CCN(c3cccc(C)c3)C(C)C2)c(=O)c2cc3sccc3n12` (configuration not stated) was tested, and the survival was inactive: 135%.
With `CCN1CCN(C(=S)Nc2ccccc2)CC1` the survival was inactive: 72%.
In the case of `CCOCCCNC(=O)C(c1ccc(C)cc1)N(Cc1ccc2c(c1)OCO2)C(=O)c1ccccc1O` (configuration not stated), the survival is reported as inactive: 55%.
For `Cc1cc(C)c(NC(=O)CSc2nc(=O)n(Cc3ccncc3)c3c2CCC3)c(C)c1`, the survival was inactive: 78%.
In the case of `COc1cccc(C2=CC(c3ccccc3F)n3ncc(C(=O)Nc4ccc(F)cc4)c3N2)c1` (configuration not stated), the survival is reported as inactive: 72%.
`Cc1ccc(Nc2c(-c3cccnc3)nc3ccc(C)cn23)cc1` was tested, and the survival was inactive: 95%.
For `Cc1nn(C2CC(=O)N(c3ccc(Cl)cc3)C2=O)c(C)c1C` (configuration not stated), the survival was inactive: 89%.
In the case of `CCOCCCNC(=O)C1CCN(c2nc3ccc(C)cc3[nH]2)CC1`, the survival is reported as inactive: 101%.
With `COC(=O)c1cc(-c2ccc(Cl)cc2)c2c(=O)[nH]c(=O)n(C)c2n1` the survival was inactive: 92%.
For `COc1ccc(NC(=O)CCc2c(C)nn(-c3ccc(N4CCCC4)nn3)c2C)cc1Cl`, the survival was inactive: 101%.
With `Cc1ccc(Cn2c(=O)n(CCc3ccccc3)c(=O)c3sc4ccccc4c32)cc1` the survival was inactive: 74%.
For `COc1ccc(N2CCN(C(=O)Cn3cnc4sc(C)c(S(=O)(=O)N5CCCCC5)c4c3=O)CC2)cc1`, the survival was inactive: 73%.
For `Cc1ccc(NC(=O)CCn2cccn2)c(C)c1`, the survival was inactive: 79%.
`O=C(CSc1nc2c([nH]c3ccccc32)c(=O)n1-c1ccccc1)Nc1cccc(C(F)(F)F)c1` was tested, and the survival was active: -4%.
For `CCc1ccc(CNC(=O)c2ccc3c(c2)c(C)c(C)n3Cc2ccccc2)cc1`, the survival was inactive: 83%.
In the case of `O=C(NC1CCCCC1)c1ccc(CSc2nc3ccncc3n2Cc2cccc(F)c2)cc1`, the survival is reported as inactive: 95%.
In the case of `Cc1ccc(N(C)C(=O)Cn2ncc3c([nH]c4ccccc43)c2=O)cc1C`, the survival is reported as active: 37%.
`O=C(/C=C/c1ccco1)Nc1ccc(-c2nc3ccccc3[nH]2)cc1` was tested, and the survival was inactive: 74%.
For `COc1ccc(CNCC#N)cc1OC`, the survival was inactive: 77%.
For `CS(=O)(=O)N1CCN(C(=O)c2ccccc2)CC1`, the survival was inactive: 76%.
With `CCOC(=O)N1CCc2c(sc(NCc3cc(OC)ccc3OC)c2C(=O)Nc2cc(OC)ccc2OC)C1` the survival was inactive: 90%.
For `O=C(CC1SCC(C(=O)O)NC1=O)NCc1ccccc1` (configuration not stated), the survival was inactive: 66%.
`O=C(c1ccccc1)N1CCC(c2nc3c(nnn3Cc3ccccc3)c(=O)[nH]2)CC1` was tested, and the survival was active: 13%.
For `CCS(=O)(=O)c1ccc(C(=O)N2CCN(c3nc4c(OC)ccc(C)c4s3)CC2)cc1`, the survival was inactive: 84%.
For `Cc1ccc(-c2nnc(SC(C)C)n2-c2ccccc2)cc1`, the survival was inactive: 100%.
`O=C(CSc1cn(CCNC(=O)c2ccccc2F)c2ccccc12)Nc1ccc2c(c1)OCCO2` was tested, and the survival was inactive: 75%.
For `COc1cccc(C(C(=O)NCC2CCCO2)N(CC2CCCO2)C(=O)CC2C(=O)c3ccccc3S2(=O)=O)c1` (configuration not stated), the survival was inactive: 90%.
`COCCn1c(C)cc(O)c(C(c2ccccc2)N2CCN(c3ccccc3F)CC2)c1=O` (configuration not stated) was tested, and the survival was inactive: 112%.
In the case of `O=c1[nH]c2cc3c(cc2cc1CNCc1ccc2c(c1)OCO2)OCCO3`, the survival is reported as inactive: 89%.
With `CC(C)c1ccc(NC(=O)c2cn(C3CCCC3)c(=O)c3c2c2ccccc2n3C)cc1` the survival was inactive: 70%.
For `CCCOc1ccc(NC(=O)CC2C(=O)N(c3cccc(OC)c3)C(=O)N2CCc2ccncc2)cc1` (configuration not stated), the survival was inactive: 69%.
`CCOc1ccc(-c2csc3ncn(CC(N)=O)c(=O)c23)cc1` was tested, and the survival was inactive: 82%.
With `COc1ccccc1-c1nc(CNC(=O)NC2CCCCC2)c(C)o1` the survival was inactive: 94%.
For `O=C(Cn1ncc2ccsc2c1=O)N1CCN(c2ccc(Cl)cc2)CC1`, the survival was inactive: 78%.
In the case of `Cc1ccc(NC(=O)CCn2nc(C)c3c(C)n(-c4ccccc4)nc3c2=O)cc1Cl`, the survival is reported as inactive: 117%.
With `CC1CCCCN1Cc1nc2c(c(=O)n(C)c(=O)n2C)n1Cc1ccc(Br)cc1` (configuration not stated) the survival was inactive: 97%.
For `CON(C)c1nc(OCCNC(=O)OCc2ccc(Cl)cc2Cl)nc(N(C)C)n1`, the survival was inactive: 76%.
`Cc1ccc2c(Sc3ccc(Cl)cc3)c(C(=O)N3CCCCC3)[nH]c2c1` was tested, and the survival was inactive: 85%.
`COc1ccc(NC(=O)c2c(-c3ccc(C)cc3)nnc3ccccc23)cc1OC` was tested, and the survival was inactive: 67%.
For `O=C(c1cnccn1)N(Cc1ccc(Cl)cc1)Cc1cc2cc3c(cc2[nH]c1=O)OCCO3`, the survival was inactive: 98%.
For `CCN(CC)c1ccc(NC(=O)COCc2cc(-c3ccc4c(c3)OCO4)on2)c(C)c1`, the survival was inactive: 91%.
In the case of `C/C(=N\N=C1/NC(=O)C(CC(=O)O)S1)c1ccc(C)o1` (configuration not stated), the survival is reported as inactive: 101%.
`Cc1ccccc1Cn1c2ccccc2c2cnn(CC(=O)NCc3cccc(Cl)c3)c(=O)c21` was tested, and the survival was inactive: 75%.
`CCOC(=O)c1ccc(CN(Cc2ccc(F)cc2)S(=O)(=O)c2ccc(F)c(C(=O)Nc3cc(Cl)ccc3OC)c2)cc1` was tested, and the survival was inactive: 79%.
